From PubChem BioAssay AID2546 (National Center for Advancing Translational Sciences (NCATS), 2010)
The campaign covered roughly 310,000 compounds. About 11,000 (3.5%) were called active. The shares of active, inactive and inconclusive entries below differ from those in the screen. Calls follow the shape of the dose curve; as a rule, active = well fitted inhibition curve with a large enough effect; inconclusive = small, poorly fitted or top-dose-only effect, or effect the other way; inactive = flat fitted curve, though single readings scatter. Potencies of inconclusive entries are left out as doubtful fits.
Potency is read from the fitted curve at half-maximal effect; tags tell the direction and shape of the fitted curve.

Test: VP16 counterscreen qHTS for inhibitors of ROR gamma transcriptional activity;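 also: Gal4-VP16 expression switched on by copper sulfate through the metallothionein promoter; nearly all actives have a fitted effect of over 50% in size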
Settings: Drosophila S2 Gal4-VP16 UAS-luciferase, luminescence, 20 h; series mostly up to 53.6 µM
In the case of COc1ccc(NS(=O)(=O)c2ccc(NC(=O)C3CC3)cc2)cc1, the Potency is reported as inconclusive [inhibitor, single point].
With CC1CCc2sc(C(=O)OCC(=O)NCc3ccc(F)cc3)cc2C1 (stereo not given) the Potency was inconclusive [inhibitor, single point].
In the case of Fc1ccc(Nc2nc(N/N=C/c3ccco3)nc(N3CCCCC3)n2)cc1, the Potency is reported as active: 5.01 µM.
With Cc1cc(C)nc(Nc2ccc(C(=O)O)cc2)n1 the Potency was inconclusive [inhibitor, full curve, poor fit].
For Oc1ccc(Br)cc1/C=N/n1cnc2ccccc21, the Potency was inconclusive [inhibitor, single point].
With COc1cc2c3nnc(-c4ccccc4)c-3cn(Cc3ccccc3F)c2cc1OC the Potency was inconclusive [inhibitor, single point].
For CC1CC(c2ccccc2)n2nc(NC(=O)c3cccs3)nc2N1 (stereo not given), the Potency was inconclusive [inhibitor, single point].
In the case of O=C(CSc1nnc(CNC(=O)c2cccc(C(F)(F)F)c2)o1)NC1CCCC1, the Potency is reported as “inactive”.
For COc1ccc(NS(=O)(=O)c2ccc3c(c2)Cc2ccccc2-3)cn1, the Potency was inconclusive [inhibitor, single point].
In the case of Cc1n[nH]c(=S)n1/N=C/c1ccccc1OCc1ccc(Cl)cc1, the Potency is reported as inconclusive [inhibitor, partial curve].
With COC(=O)Cn1cnc2c(nnn2-c2ccc(OC)cc2)c1=O the Potency was “inactive”.
With CC(=O)OC1CCC2(C)C3CC(=O)C4(C)C(CC5OC6(CCC(C)CO6)C(C)C54)C3CC[C@H]2C1 (stereo not given in full) the Potency was “inactive”.
In the case of Cc1cccc(-c2nnc(NC(=O)c3ccc(Cl)cc3)o2)c1, the Potency is reported as active: 1.41 µM.
In the case of CC(/C=C/c1ccco1)=N\NC(=O)c1cc(Cl)ccc1O, the Potency is reported as inconclusive [inhibitor, single point].
For CCC(=O)N1CCN(c2ccccc2NC(=S)NC(=O)c2cccc([N+](=O)[O-])c2)CC1, the Potency was inconclusive [inhibitor, single point].
In the case of COc1cc(/C=N/n2c(-c3cc(C)[nH]n3)n[nH]c2=S)cc(OC)c1O, the Potency is reported as “inactive”.
In the case of COc1ccc2c(c1OC)C(=O)N(c1ccc(C)cc1)C2=O, the Potency is reported as inconclusive [activator, full curve].
For S=C(Nc1ccccc1)N1CCOCC1, the Potency was “inactive”.
In the case of Cc1ccc(Cn2c(O)c(N=NC(=S)Nc3ccccc3F)c3ccccc32)cc1, the Potency is reported as active: 7.08 µM.
With O=C(N/N=C/c1c[nH]c2ccccc12)c1ccncc1 the Potency was inconclusive [inhibitor, single point].
In the case of NS(=O)(=O)c1cc(C(=O)Nc2ccc3c(c2)OCCCO3)ccc1Cl, the Potency is reported as inconclusive [activator, partial curve, poor fit].
With C/C(=N\NC(=S)NC1CCCCC1)c1ccccc1 the Potency was inconclusive [inhibitor, partial curve].
With O=C1C=C(N2CCOCC2)c2ccccc2C1=O the Potency was active: 3.16 µM.
With C=CCn1c(NCc2ccccc2)nc2ccccc21 the Potency was inconclusive [inhibitor, single point].
With Cc1ccc(C(=O)NNC2=Nc3cccc4cccc2c34)cc1 the Potency was active: 1.41 µM.
For O=C(C1Cc2ccccc2CN1C(=O)c1ccccc1)N1CCN(c2ccccc2)CC1 (stereo not given), the Potency was “inactive”.
With CCOc1cccc(/C=C/c2ccc3cccc(O)c3n2)c1O the Potency was inconclusive [inhibitor, single point].
With CCC1=NN(C(=O)c2cccc(Br)c2)C(O)(c2ccc(Br)cc2)C1 (stereo not given) the Potency was “inactive”.
For CCOc1ccc(S(=O)(=O)N2CCOCC2)cc1NC(=O)CSCC(=O)Nc1cccc(C)c1, the Potency was inconclusive [inhibitor, single point].
For CCCN1C(=O)SC(CC(=O)Nc2ccccc2)C1=O (stereo not given), the Potency was “inactive”.
For COc1ccc(CCNC(=S)c2ccccc2)cc1OC, the Potency was active: 15.8 µM.
For CCc1[nH]nc2c1C(c1ccc(Br)s1)C(C#N)=C(N)O2 (stereo not given), the Potency was inconclusive [inhibitor, single point].
In the case of COc1cccc(/C=N\NC(=O)C2C(=O)NCC2c2ccccc2)c1O (stereo not given), the Potency is reported as inconclusive [inhibitor, single point].
For Cc1oc(-c2ccc3c(c2)OCCO3)cc1C(=O)O, the Potency was active: 1.41 µM.
With Cc1ccc(NCCC(=O)c2ccccc2)cc1Cl the Potency was “inactive”.
With CCc1cc(-c2n[nH]c(C)c2-c2ccccc2Cl)c(O)cc1OC the Potency was inconclusive [inhibitor, single point].
With Cc1ccc(SC(C)C(=O)Nc2ccncc2)cc1 (stereo not given) the Potency was inconclusive [inhibitor, single point].
In the case of O=C(NC(=S)NCCc1ccccc1)c1ccco1, the Potency is reported as inconclusive [inhibitor, single point].
For Cc1ccc(C)n1-c1sc2c(c1C(=O)O)CCCC2, the Potency was inconclusive [activator, single point].
For Cc1ccc(-c2nc3ccccc3o2)cc1NC(=S)NC(=O)c1cccs1, the Potency was inconclusive [inhibitor, single point].
With CCOC(=O)C1CCN(CC(=O)N2C(C)CCCC2C)CC1 (stereo not given) the Potency was “inactive”.
For CC(C)(C)CC(=O)NC(=S)NCc1ccccc1, the Potency was active: 8.91 µM.
For C=CCn1c(=S)[nH]c2sc3c(c2c1=O)CCCC3, the Potency was active: 0.708 µM.
With COc1ccccc1C/C(N)=N/OC(=O)c1ccc2c(c1)OCO2 the Potency was inconclusive [inhibitor, full curve, poor fit].
In the case of Fc1ccc(-c2cnc(-c3cccs3)o2)cc1, the Potency is reported as inconclusive [inhibitor, single point].
In the case of CCCCC(=O)N1CCN(c2nc3ccc(F)cc3s2)CC1, the Potency is reported as inconclusive [inhibitor, single point].
In the case of O=C(CCn1cnc2ccccc2c1=O)Nc1cccc(Cl)c1Cl, the Potency is reported as “inactive”.
In the case of COc1cc(OC)c2cc(C(=O)N/N=C/c3ccccc3O)[nH]c2c1, the Potency is reported as active: 5.62 µM.
For Clc1ccc(Nc2nc(NCCN3CCOCC3)nc(N3CCOCC3)n2)cc1, the Potency was “inactive”.
With Cc1ccccc1CC1(CO)CCCN(C(=O)c2ccc3ncccc3c2)C1 (stereo not given) the Potency was “inactive”.
